Among the data in the antibiotic and cytotoxicity screens of Wong et al. (2023) are cytotoxicity call and growth inhibition call values, retold here.

This is one part of the list.

In assay [1] the test system is HSkMC (human skeletal muscle cells). Nature of the assay: cytotoxicity call (relative viability < 0.9). The following applies: 10 µM.
Assay [2] relates to HepG2. The assay can be described thus: cytotoxicity call (relative viability < 0.9). As to conditions: 10 µM.
Assay [3] deals with S. aureus RN4220. Nature of the assay: growth inhibition call (relative growth <= 0.2). The following applies: 50 µM.

`Nc1ccon1`: the cytotoxicity call in assay [1] and in assay [2] was “inactive” each time. The growth inhibition call in assay [3] was “inactive”.

For `C/C(=C/C(=O)N1CCN(C)CC1)C(=O)O`, the cytotoxicity call in assay [1] and in assay [2] was “inactive” throughout. Also, the growth inhibition call in assay [3] is “inactive”.

As for `COc1ccc2c3c(n(c2c1)C)[C@@H](CO)N(C[C@]13CCN(CC1)C(=O)c1ccccc1F)C(=O)Nc1ccccc1F`, the cytotoxicity call in assay [1] was “active”. The cytotoxicity call in assay [2] is “inactive”. Also, the growth inhibition call in assay [3] was “inactive”.

Take `C=CCn1c(=O)n([C@H]2O[C@@H](CO)[C@@H](O)[C@@H]2O)c2[nH]c(N)nc(=O)c21`: the cytotoxicity call in assay [1] and in assay [2] was “inactive” each time. In addition, in assay [3], the growth inhibition call is “inactive”.

Take `C[C@H](CO)N1C[C@H](C)[C@@H](CN(C)C(=O)Cc2ccccc2)OCCCC[C@H](C)Oc2ccc(NC(=O)Nc3ccc(C(F)(F)F)cc3)cc2C1=O`: the cytotoxicity call in assay [1] and in assay [2] was “inactive” each time. Also, the growth inhibition call in assay [3] is “inactive”.

`C[C@@H]1CN([C@@H](C)CO)C(=O)c2cccc(NS(=O)(=O)c3cn(C)cn3)c2O[C@H]1CN(C)S(=O)(=O)c1cn(C)cn1`: the cytotoxicity call in assay [1] and in assay [2] was “inactive” throughout. Moreover, the growth inhibition call in assay [3] is “inactive”.
